Test results taken from PubChem BioAssay AID493208 (National Center for Advancing Translational Sciences (NCATS), 2011).
About 340 (0.77%) of roughly 44,000 compounds were called active. Not shown: some 5% with an inconclusive outcome. Calls follow the shape of the dose curve; as a rule, active = well fitted inhibition curve with a large enough effect; inconclusive = small, poorly fitted or top-dose-only effect; inactive = flat fitted curve, though single readings scatter. The list shows a part of the results.

assay: Acumen qHTS Assay for Inhibitors of the mTORC1 Signaling Pathway in MEF (Tsc2-/-, p53-/-) Cells: Sytravon; conditions: phospho-rpS6 immunofluorescence/PI, 24 h; series mostly up to 38.3 µM; activity change, negative = inhibition: at the top concentration;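 also: plate controls were DMSO for no effect and rapamycin for full effect; nearly all actives have a fitted effect of over 50% in size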
How it was run: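 Cell-based qHTS: Tsc2-/- p53-/- MEF, 24 h cpd, 37 °C; fix/perm, anti-phospho-S6 Alexa-488 + PI; Acumen 488 nm scan; pS6/PI ratio, % positive cells; rapamycin 7.5 nM = inhibition ref; PI count = viability.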

Activity change, negative = inhibition, inactive:
Cc1ccc(C)c(OCC(=O)Nc2ccc(S(=O)(=O)Nc3onc(C)c3C)cc2)c1C 1.36%
CCC(C(=O)Nc1ccccc1OC)n1nc(C)c2sc3ccccc3c2c1=O (centres undefined) 0.438%
CC(Sc1cn(CCNC(=O)c2ccccc2F)c2ccccc12)c1ccccc1 (centres undefined) -2.34%
Cc1ccc(NC(=O)c2c(C)oc3nc(C)nc(N4CCCC4)c23)c(C)c1 7.39%
CCN(CCCNC(=O)CSc1cc(=O)n(CC)c2ccccc12)c1cccc(C)c1 1.73%
CCOc1ccc(CCNC(=O)c2ccc(CS(=O)Cc3cccc(Cl)c3)o2)cc1 (centres undefined) -3.54%
COC(=O)c1ccc(NC(=O)CSc2ncc3c(n2)-c2cc(Cl)ccc2N(Cc2ccccc2)S3(=O)=O)cc1 -8.94%
COc1ccc(NC(=O)c2c(NCc3sccc3C)sc3c2CCCCC3)c(OC)c1 -24.3%
Cc1ccc2c(=O)c(C(=O)c3ccc(Cl)cc3)cn(CC(=O)NC3CCCCC3)c2n1 -5.49%
O=S(=O)(c1ccc(F)cc1)N(Cc1nc(-c2ccc(Cl)cc2)no1)C1CCCCC1 -13.5%
COc1ccc(Br)cc1C(=O)Nc1ccc(-c2nc3cc(Cl)ccc3o2)cc1 1.73%
Cc1c(NC(=O)c2cccc3c(Cl)cccc23)cccc1-c1nc2ccccc2o1 1.08%
O=C(CCS(=O)(=O)c1cc(Br)cc2c1N(C(=O)C1CC1)CC2)NCc1ccccc1Cl 0.619%
COc1ccc2c(c1)c(=O)c(S(=O)(=O)c1ccc(C)cc1)cn2Cc1ccccc1C -4.54%
COC(=O)c1sccc1S(=O)(=O)N(CC(=O)Nc1c(C)cccc1C)c1ccc(C)c(C)c1 -14.1%
CCOC(=O)N1CCc2c(sc3c2c(=O)n(Cc2ccccc2)c(=O)n3CC(=O)Nc2ccc(C)c(C)c2)C1 -7.79%
CCC(C(=O)Nc1cc(F)ccc1F)n1nc(-c2cc(C)ccc2C)ccc1=O (centres undefined) -4.28%
Cc1ccc(NC(=O)CCC(=O)N2CCSc3ccccc32)cc1Cl -18.5%
Cc1c(Cl)cccc1NC(=O)Nc1nnc(N(C)Cc2ccccc2)s1 1.95%
Cc1c(NC(=O)C(C)(C)Oc2ccc(Cl)cc2)cccc1-c1nc2ncccc2o1 -0.0391%
CC1=C(C(=O)NCc2ccccc2C)C2(CCCCC2)OC1=O -5.46%
CC(=O)c1ccc(NC(=O)Cn2cc(S(=O)(=O)Cc3ccccc3Cl)c3ccccc32)cc1 -3.22%
O=C(COc1ccccc1[N+](=O)[O-])Nc1cccc(-c2nc3ccccc3s2)c1 -24%
COc1ccc(N(CC(=O)Nc2cc(C)ccc2C)S(=O)(=O)c2ccc(OC)c(OC)c2)cc1 3.89%
Cn1c(=O)c2c(nc(Oc3ccccc3)n2Cc2c(Cl)cccc2Cl)n(C)c1=O -2.83%
COCCCNC(=O)CSc1nc2cc3c(cc2c(=O)n1CCCC(=O)NCc1ccc(OC)cc1)OCO3 -15.7%
CCOc1ccc(NC(=O)CN2C(=O)COc3ccc(S(=O)(=O)NC4CCCC4)cc32)cc1 0.841%
COc1cc(NC(=O)CSc2nc3nc(C)c(Cc4ccc(C)cc4)c(C)n3n2)cc(OC)c1OC 8.45%
O=C(Nc1ccc(F)cc1F)c1ccc2c(O)c(S(=O)(=O)c3ccc(Cl)cc3)c(=O)[nH]c2c1 3.36%
CCc1ccc(C2c3c(oc4ccc(F)cc4c3=O)C(=O)N2c2nc(C)c(C(=O)OC)s2)cc1 (centres undefined) 4.58%
O=C(Nc1c(C(=O)O)oc2ccccc12)c1ccc(C(F)(F)F)cc1 -4.35%
O=C(CSc1cn(CC(=O)N2CCOCC2)c2ccccc12)Nc1ccccc1 0.814%
O=C(COCc1cc(-c2ccc3c(c2)OCO3)on1)NCc1ccccc1Cl -10.3%
COc1ccccc1OCC(=O)NCc1nc(-c2ccc(Cl)cc2)no1 3.69%
CCOc1ccc(C(=O)Nc2ccc(S(=O)(=O)Nc3nc(C)cc(C)n3)cc2)cc1OC 2.46%
O=C(COc1ccccc1)Nc1ccccc1OCc1cc(=O)n2ccccc2n1 -2.81%
CC1=C(c2ccc(C)c(C)c2)S(=O)(=O)N(Cc2ccc(C(=O)NC(C)c3ccccc3)cc2)C1=O (centres undefined) -9.73%
Cc1ccccc1Cc1c(C)nc2nc(SCC(=O)NCCc3ccc(Cl)cc3)nn2c1C -26.8%
O=C(CN1C(=O)CCc2cc(S(=O)(=O)N3CCOCC3)ccc21)Nc1cccc(C(F)(F)F)c1 7.81%
Cc1ccc2c(=O)cc(C(=O)Nc3sc4c(c3C(=O)NCc3ccccc3)CCCC4)oc2c1C 6.19%
CCCCCCOc1ccc(C2C(=O)N(C3CCCCC3)CC(=O)N2CCCC)cc1 (centres undefined) 13.7%
CCOc1cccc(C(=O)Nc2cc(-c3ccc(C)cc3)no2)c1 -1.29%
CN(C)c1ccc(CNC(=O)CCS(=O)(=O)c2ccc3c(c2)oc(=O)n3C)cc1 -8.22%
O=C(Nc1sc2c(c1C(=O)N1CCCCC1)CCCC2)c1ccccc1Cl -2.25%
Cc1noc(Cn2c(=O)c3cc4c(cc3n(CC(=O)Nc3ccccc3Br)c2=O)OCO4)n1 -6.41%
COc1ccc(NC(=O)CNC(=O)Cn2c(C)cc3ccccc3c2=O)cc1OC -22.2%
CCCS(=O)(=O)N1CCCC(C(=O)NCCOC)C1 (centres undefined) -6.72%
Cc1ccccc1CNC(=O)CN(c1cccc(C)c1C)S(C)(=O)=O -12.1%
CCCCN(CCCC)C1=C(C(=O)c2ccccc2)N(C)S(=O)(=O)c2ccccc21 2.48%
CCOc1ccc(NCc2cccn2-c2nnc(N3CCC(C(=O)NCCOC)CC3)s2)cc1 -6.09%
C=C(C)Cn1c(=O)c2c(nc3n2CCN3c2ccc(F)cc2)n(C)c1=O 10.1%
Cc1cc(=O)n2nc(N3CCC(C(=O)NCc4ccc(F)cc4)CC3)sc2n1 0.29%
CCOc1ccc(-c2nc(Cn3ccn4nc(-c5ccc(OCC)c(Cl)c5)cc4c3=O)c(C)o2)cc1 0.259%
COc1ccccc1/C=C/c1nc(C#N)c(NCCc2ccccc2)o1 -2.64%
Cc1ccccc1Nc1cc(C(=O)NCc2cccs2)c2ccccc2n1 -0.798%
COc1ccc(C)cc1N(C)C(=O)c1c2c(nc3ccccc13)C(=O)N(C1CCCCC1)C2 -0.537%
CCOc1ccc(N(CC)S(=O)(=O)N2CCCC(C(=O)Nc3cc(Cl)ccc3OC)C2)cc1 (centres undefined) -3.08%
COc1ccc(Nc2ncc(C(=O)N3CCN(c4ccc(F)cc4)CC3)c3ccccc23)cc1 -20.5%
COc1ccc(-c2nc3scc(CCNS(=O)(=O)c4ccc(NC(C)=O)cc4)n3n2)cc1 0.232%
